Consider 46 molecules from PubChem BioAssay AID1508624 (National Center for Advancing Translational Sciences (NCATS), 2021).

Out of some 48,000 compounds screened, about 120 (0.25%) were called active. About 4% were inconclusive and are not listed. The call rests on the fitted dose curve; in most records, active means well fitted activation curve with a large enough effect; inconclusive means small, poorly fitted or top-dose-only effect, or another doubt; inactive means no such curve, though single readings can be large or run the other way. Some of the results follow.

The assay can be described thus: Primary qHTS for Identification of Small Molecule Activators of Huntingtin-Antisense Promoter Activity. Further: nearly all actives have a fitted effect of over 55% in size. As to conditions: HEK293 HTT-AS promoter firefly luciferase reporter, 24 h; series mostly up to 57.5 µM; activity change, positive = activation: at the top concentration. In outline:
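HEK293 Fluc reporter, 2,500 cells/well, 24 h pre-culture; cpds up to 57.5 uM final, 24 h 37 degrees C; Dual-Glo, 10 min RT; normalized vehicle = 0%, zero RLU = -100%.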
A general note: Quantitative high-throughput screening tests each substance at several concentrations.
On to `O=c1oc2ccc3ccccc3c2cc1-c1nnc(Nc2ccc(F)cc2)s1`, for which the “activity change, positive = activation” value was inactive: -13.6%.

Regarding `O=C(c1cccn1-c1nnc(N2CCCC2)s1)N1CCN(c2ccc(Cl)cc2)CC1`, the “activity change, positive = activation” value is inactive: -16.6%.

Regarding `COc1cc(C2Nc3c(C)cc(C)cc3-c3cc(C)nn32)cc(OC)c1O` (stereo unspecified), the “activity change, positive = activation” value was inactive: -9.35%.

For `Cc1ccc2c(c1)C(c1ccccc1)N(C(=O)Cc1ccc(F)cc1)CC(=O)N2` (stereo unspecified), the “activity change, positive = activation” value is inactive: -8.14%.

For `CCCS(=O)(=O)NCCc1sc2nc(-c3ccc(F)cc3)nn2c1C`, the “activity change, positive = activation” value is inactive: -3.5%.

In the case of `Cc1cc(C)n(-c2nnc(Nc3ccc(C)c(Cl)c3)c3ccccc23)n1`, the “activity change, positive = activation” value was inactive: -36.8%.

Turning to `Cn1c(=O)[nH]c2cc(-c3noc(-c4ccc(C#N)cc4)n3)ccc21`, the “activity change, positive = activation” value is inactive: -8.07%.

With `COc1ccc(Cn2c(C(=O)O)c(CNCCc3cc(OC)ccc3OC)c3ccc(C)cc32)cc1`, the “activity change, positive = activation” value was inactive: -44.1%.

Regarding `COc1ccc(C2=NC(C)(C)N(CC(=O)Nc3cccc(C)c3)C2=O)cc1`, the “activity change, positive = activation” value is inactive: -18.7%.

For the molecule `CN(C)C(=O)c1c(NC(=O)c2ccccc2F)sc2c1CCCC2`, the “activity change, positive = activation” value is inactive: -7.83%.

Consider `CC(=O)Nc1ccc(S(=O)(=O)NCC2CCC(C(=O)NCCN(CC(C)C)CC(C)C)CC2)cc1` (stereo unspecified), for which the “activity change, positive = activation” value was inactive: -10.6%.

For `O=C(COc1ccc2ccccc2c1)NC1CC(=O)N(c2cccc(F)c2)C1` (stereo unspecified), the “activity change, positive = activation” value was inactive: -10.7%.

For the molecule `Nc1nc2ccc([N+](=O)[O-])cc2s1`, the “activity change, positive = activation” value was inactive: 5.18% [at 116 µM, percent change from vehicle, -100% = no light].

As for `Cc1ccc(S(=O)(=O)Nc2nc3n(n2)C(c2ccc(F)cc2)C=C(c2ccccc2)N3)cc1` (stereo unspecified), the “activity change, positive = activation” value is inactive: -24.1%.

For the molecule `CC1=C(C(=O)Nc2ccc(Cl)cc2)C(CC(C)C)n2nc(SCc3ccccc3C)nc2N1` (stereo unspecified), the “activity change, positive = activation” value is inactive: -11.8%.

Turning to `CCOc1ccc(CCNC(=O)c2cnc3sc(N4CCCC4)nn3c2=O)cc1`, the “activity change, positive = activation” value was inactive: -31.2%.

For the molecule `COc1ccc(NS(=O)(=O)c2ccc3[nH]c4c(c3c2)CCCC4)cc1OC`, the “activity change, positive = activation” value is inactive: -47.3%.

For `Cc1ccc(C)c(NC(=O)c2ccc(CN3CC(=O)N4CCCCC4C3=O)cc2)c1` (stereo unspecified), the “activity change, positive = activation” value was inactive: -5.24%.

As to `CC(=O)Nc1ccc(NC(=O)c2ccc3c(c2)N(Cc2cccc(Cl)c2)C(=O)c2ccccc2S3(=O)=O)cc1`, the “activity change, positive = activation” value is inactive: -27.2%.

As for `CCOC(=O)C(C)Sc1ccc2nnc(CCNS(=O)(=O)c3ccccc3)n2n1` (stereo unspecified), the “activity change, positive = activation” value is inactive: -4.51%.

With `CCn1c(CN2CCCCC2)nc2cc(NC(=O)c3cc(OC)c(OC)c(OC)c3)ccc21`, the “activity change, positive = activation” value was inactive: -14%.

As to `CN(Cc1ccccc1)C(=O)c1nc(-c2ccc(Cl)cc2)n2c1CCCCC2`, the “activity change, positive = activation” value was inactive: -15.4%.

For the molecule `CC1N=C2c3ccccc3N=C(SCC(=O)NCCc3ccccc3)N2C1=O` (stereo unspecified), the “activity change, positive = activation” value was inactive: 8.21%.

In the case of `COc1ccc(Nc2c3c(nc4ccc(NC(=O)c5ccc(F)cc5)cc24)CCCC3)cc1OC`, the “activity change, positive = activation” value was inactive: -27.9%.

Take `O[C@@H](c1cc(C(F)(F)F)nc2c(C(F)(F)F)cccc12)[C@H]1CCCCN1`: the “activity change, positive = activation” value is inactive: -27%.

On to `Cc1ccc(-n2nc3c(=O)n(C(C)C(=O)NCc4ccco4)nc(C)c3c2C)cc1` (stereo unspecified), for which the “activity change, positive = activation” value is inactive: -26.5%.

Take `NS(=O)(=O)c1cc2c(cc1C(F)(F)F)NC(Cc1ccccc1)NS2(=O)=O` (stereo unspecified): the “activity change, positive = activation” value is inactive: -4.29%.

For `Cc1ccc(Cl)cc1N1CCN(CCCNC(=O)c2ccc3nc(N4CCCCC4)sc3c2)CC1`, the “activity change, positive = activation” value is inactive: -36.3%.

As for `O=C(NC1(C(F)(F)F)NC(=O)N(CCc2ccccc2)C1=O)c1ccc(Cl)cc1` (stereo unspecified), the “activity change, positive = activation” value was inactive: -27.7%.

For `CCn1ccc2c(OCC(=O)Nc3ccccc3C(F)(F)F)cccc2c1=O`, the “activity change, positive = activation” value is inactive: -34.5%.

In the case of `COC(=O)CC1Oc2ccc(Cl)cc2-n2cc(-c3ccccc3)nc21` (stereo unspecified), the “activity change, positive = activation” value is inactive: -21.3%.

Take `Oc1c(C(c2ccccc2)N2CCC(O)CC2)sc2nc(-c3ccco3)nn12` (stereo unspecified): the “activity change, positive = activation” value is inactive: -15.5%.

As for `COc1ccc(-c2c(C)nn3c(C(F)(F)F)cc(-c4ccccc4)nc23)cc1`, the “activity change, positive = activation” value is inactive: -7%.

In the case of `COc1ccc(OC)c(NC(=O)c2cc(C3CC3)nc3c2c(C)nn3-c2ccc(C)cc2)c1`, the “activity change, positive = activation” value was inactive: -18.7%.

As to `O=C(Cn1cc(SCc2ccccc2F)c2ccccc21)N1CCCCC1`, the “activity change, positive = activation” value is inactive: 17.8%.

`Cc1cc(C)cc(NC(=O)Cc2c(C(=O)O)c(C)cn2C)c1`: the “activity change, positive = activation” value is inactive: -8.26%.

Take `O=C(NCc1ccco1)c1ccc2c(c1)N(Cc1c(F)cccc1Cl)C(=O)c1ccccc1S2`: the “activity change, positive = activation” value was inactive: -28.5%.

For `CCCCCCCCCCCCCCCCC(C(=O)O)C(O)(CC(=O)O)C(=O)O` (stereo unspecified), the “activity change, positive = activation” value was inactive: -11.5%.

Regarding `COc1ccc(C(=O)NCc2ccc3c(c2)CCN3C(=O)c2ccc(C)cc2)cc1`, the “activity change, positive = activation” value was inactive: -23.3%.

`CC(=O)c1cccc(NC(=O)C2CCN(S(=O)(=O)c3ccc4[nH]c(=O)ccc4c3)CC2)c1`: the “activity change, positive = activation” value was inactive: -8.31%.

As for `Cc1ccc(CNC(=O)C2CCN(Cc3nc(-c4cccc(Br)c4)oc3C)CC2)cc1`, the “activity change, positive = activation” value was inactive: -9.32%.

In the case of `CCOc1ccc(-n2c(=O)c3c4c(sc3n(CC(=O)NC(C)CC)c2=O)CCCC4)cc1` (stereo unspecified), the “activity change, positive = activation” value was inactive: -9.01%.

With `Cc1cccc(-n2c(=O)c3ccccc3n(Cc3ccccc3)c2=O)c1`, the “activity change, positive = activation” value was inactive: -26.9%.

Turning to `Cc1ccc(-n2nc3ccc(NC(=O)COc4ccccc4)cc3n2)cc1Cl`, the “activity change, positive = activation” value was inactive: -12.2%.

For `CCc1cc2c(cc(C(=O)OC)n2Cc2nc(-c3ccc(C)cc3)oc2C)s1`, the “activity change, positive = activation” value is inactive: 17%.

In the case of `O=C(CSc1nc2c([nH]c3ccccc32)c(=O)n1-c1cccc(C(F)(F)F)c1)N1CCc2ccccc21`, the “activity change, positive = activation” value was inactive: -15.4%.
